Some of the results follow.

T1: UNK ZnF1-3 (human, UniProt Q9C0B0 31-174)
T1 sequence: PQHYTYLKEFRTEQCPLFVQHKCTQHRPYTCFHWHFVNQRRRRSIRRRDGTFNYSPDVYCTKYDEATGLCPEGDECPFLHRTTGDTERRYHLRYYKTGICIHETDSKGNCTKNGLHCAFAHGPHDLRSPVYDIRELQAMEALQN

B1: chr4:45823916:45823917:-_ENSMUSG00000035551_ENSMUST00000044297|mus_mus|FALSE|FALSE (ssRNA)
RNA: GGGAGUUCUACAGUCCGACGAUCGAUAGGGGUACAGGGACCCCCUCCCUUCAUAACACGCACCAAAUCAGAGCACCCACUAAGCAGUUACAGACACCAAGUCACGAGUCAGCUGGCCUGUGCCUUGUUUUGAGCCCUUUAGAACAACAGAGGAUUGAGCAUCA
B2: chr8:61654917:61654918:+_ENSG00000171316_ENST00000423902|hu_mus|FALSE|FALSE (ssRNA)
RNA: GGGAGUUCUACAGUCCGACGAUCAUUCAUUGGAGUACUGUUUGUAAGGCCUAAAUUUUGAUUCAUCCCUGUACUGUUAACUAAUCCCUGAUUUAGGUUACUGUAAGGAUAUCGAGAAUACUGCCCUGAGUUGUUUACAGUAGGCAACAGAGGAUUGAGCAUCA
B3: chr2:179763710:179763711:+_ENSMUSG00000039108_ENSMUST00000058764|mus_mus|FALSE|FALSE (ssRNA)
RNA: GGGAGUUCUACAGUCCGACGAUCCUGAGGUGGCUCUGAGGACAUGUCAAGCUCUGAAACAGGCUGUGGAGAUGGAGAAGAACUAGGGCUGGAAGCAGCGGCUGAGGCUGGAGGGCUUACCAACUUCUCUAGACCUAAGGAAGCCAACAGAGGAUUGAGCAUCA
B4: chr10:1038518:1038519:+_ENSG00000107937_ENST00000545048|hu_hu|hu_hu_hu_mus_False|68_108 (ssRNA)
RNA: GGGAGUUCUACAGUCCGACGAUCCAGUCUAUCAUGGUAAUUCUGUUGAGUAAAUUUGACUUUUCUCAUGUAAAAAUGUCGAAUCCGAUGAAUUUGAUAAUGUUUAUGAAUAACCGUUGGAGUCUUUCGUUGAGUCUUGGAUAACAACAGAGGAUUGAGCAUCA
B5: chr11:87793471:87793472:-_ENSMUSG00000020483_ENSMUST00000020775|mus_mus|mus_mus_mus_hu_False|38_48 (ssRNA)
RNA: GGGAGUUCUACAGUCCGACGAUCUGGACUUGAAAAUAAAAGAAUAAGCUGGAUCCCCCACCCCCCCACAUUGUCAACCCUACACGAGUUCUGAAUGUGAUUCAUAAGAAAAUCAGCAGCUCAAACGGCAAUGACCACCCCACCCAACAGAGGAUUGAGCAUCA
B6: 119790299_119790419_8973_CDS_ENSMUSG00000033943_ENSMUST00000110774|mouse|control|control (ssRNA)
RNA: GGGAGUUCUACAGUCCGACGAUCAGUCUUCAUGUGUAAGAUGGGAGGUGAAGAUACACUUUCAGGCUCUGCGGGGAGACCAGAAGUACUCUGCCCUCCAUCACUAGAUUUCCUAUGGGAAACAAGAGAAUCCUUUAUUUCAGGCAACAGAGGAUUGAGCAUCA
B7: chr2:202488911:202488912:-_ENSG00000155755_ENST00000286196|hu_mus|hu_hu_hu_mus_False|28_78 (ssRNA)
RNA: GGGAGUUCUACAGUCCGACGAUCAUUGAAACAUUUUUCAUAAUCUCCAGUAGCAUUCAGUAUUAUAGUAACAAAAGCUCAAUUGUAAAUACAUGUAUCUUAUAAAAAUAAAAAUACAAACACGAGUGGGGAGCGCAGGCGCCACAACAGAGGAUUGAGCAUCA
B8: chr3:119236079:119236080:+_ENSG00000113845_ENST00000264244|hu_hu|FALSE|FALSE (ssRNA)
RNA: GGGAGUUCUACAGUCCGACGAUCGUGCCUUUCGAUCCUUCUGUUUUCUUUCCUGAACAGUCUCACCAGAGUACUUCUGAAAUGCCAUCAGCAGGCCUCCUACAGGAGUGCUCCUGCAAUUACAAAAUGGCUUAAGGCAUCUUUCAACAGAGGAUUGAGCAUCA
B9: 110380732_110380852_2591_3pUTR_ENSMUSG00000035798_ENSMUST00000041723|mouse|control|control (ssRNA)
RNA: GGGAGUUCUACAGUCCGACGAUCCUUUAAAUUUCAACAAAAUAGUAUGACUUAGUAUACUCAUGCAAGUGCUUUAUUUUCAGACCGUGAGACCCCAGAGCAAGGUUACUAGAAAUUAUCUCACUGAACUAGAAAUAAGCCAGCCAACAGAGGAUUGAGCAUCA
B10: chr8:98731313:98731314:+_ENSG00000147649_ENST00000336273|hu_mus|FALSE|FALSE (ssRNA)
RNA: GGGAGUUCUACAGUCCGACGAUCACAAGCUUUCUCCUGUUUUGGUCGGGCUUUUGAGGUAUUCACUGGAAGCUCUUCUCUAGUGUCCUUUUCUAGGUCUUCUGUGUCCUGUGUGUGAGAGUUAUCUUCCCCUUGCUUCUUCUUCAACAGAGGAUUGAGCAUCA
B11: chr11:13408652:13408653:+_ENSG00000133794_ENST00000403290|hu_mus|FALSE|FALSE (ssRNA)
RNA: GGGAGUUCUACAGUCCGACGAUCACUUCUUUGUAGUGUAAAAACACCAUACAUCUGAAAUGACCAUUUUGCAUAUAAAAGCUACCAAUGAUGCUUCUGUGCACAAUGAUUAAAAAAUUCAACACAAACAAAAUCCAAAAUAUACAACAGAGGAUUGAGCAUCA
B12: chr7:88174460:88174461:+_ENSMUSG00000005621_ENSMUST00000107353|mus_hu|FALSE|FALSE (ssRNA)
RNA: GGGAGUUCUACAGUCCGACGAUCGCACCUGUAGCCCACCUUGCGGGCAUAGUGCAGGCAAUUCUCCUUUACAUGGGUCUGGAAGUAGGCAGAGCGGCAGAGGACCCCACACUCCGGGCAGCAGUAGGGGGACUUGUGUGCAUGCAACAGAGGAUUGAGCAUCA
B13: chr17:53623224:53623225:+_ENSMUSG00000017831_ENSMUST00000017975|perfect_dup|motif|central (ssRNA)
RNA: GGGAGUUCUACAGUCCGACGAUCGGCCCGUUGGGUCUUGUUGCGCCUCGACUAGCCAUGUCCAAAUUUGAAAUAAGUCCCGGAUUUCAGACUCUUCAAUGAACUUCCAGAAUUCAAGGGGCCAAUAUUCUUCUUUCUGGAGGUCAACAGAGGAUUGAGCAUCA
B14: chrX:148277548:148277549:+_ENSMUSG00000025261_ENSMUST00000112622|mus_mus|FALSE|FALSE (ssRNA)
RNA: GGGAGUUCUACAGUCCGACGAUCAAGGACUGCCAGCACCACUUGCAUAUCAGAGGAAGCCAAUAAAGUUGUCAAAUGCUCUAUGGAACUGUACAGAUGCCGAGAAAAGCUGUACUCAAUGAGCAAGGCUGUGAAGUUCAAUACCAACAGAGGAUUGAGCAUCA
B15: 23954620_23954740_3588_CDS_ENSMUSG00000039218_ENSMUST00000088621|mouse|control|control (ssRNA)
RNA: GGGAGUUCUACAGUCCGACGAUCGUUACUUCCAGGCAUUUCUUUAUGUUCUGGAGAUAAACUGGGUAGAACUUGGCUUAAAGGUUGCUCAGACUUUUCUACUUCCAUUAGUUCAUCUUGACUUGAAUUAGGUAAUAAACUUUUCAACAGAGGAUUGAGCAUCA
B16: chr12:39756943:39756944:-_ENSG00000139116_ENST00000544797|hu_mus|hu_hu_hu_mus_False|8_88 (ssRNA)
RNA: GGGAGUUCUACAGUCCGACGAUCGGUUUGGCUGUUACCCCCAAGGGAAUCCUGUAGGAGUCUUGUCAGCUUAGAGUCUCUGUAAGGGACAUGGGUGGCUCUCUUGCUCUUGUCCCCCAAGGCGCUGAUUACAUUGCCAAGAGCCAACAGAGGAUUGAGCAUCA
B17: chr9:14812383:14812384:-_ENSMUSG00000031934_ENSMUST00000164273|mus_mus|mus_mus_mus_hu_True|1_28 (ssRNA)
RNA: GGGAGUUCUACAGUCCGACGAUCAUAGCCCAGGUAGAUACACGCUAACAGUAUAAUGAUGAGUGUCAGCAGGCGGCAGCUAAUGUACUUGAUGAUUAAAUUAUUAGAGUUCUUUUUUGUCUUCAAGUACUGCUCCACGAUUGGCAACAGAGGAUUGAGCAUCA
B18: chr13:100211666:100211667:-_ENSMUSG00000052727_ENSMUST00000064762|mus_hu|FALSE|FALSE (ssRNA)
RNA: GGGAGUUCUACAGUCCGACGAUCGUUGGCAGGAUGGGUGGUGCUUAGUAACUCCCCGAUCUCUUGAUCGGUGAAAAUCUCUAUGAAGUUCUGGAAGGAGAAAGAGCCGGACUGGAGAAUGAGCUCUCCGGUAUUUUCAAAGCACAACAGAGGAUUGAGCAUCA
B19: chr7:44244176:44244177:+_ENSG00000106636_ENST00000223369|hu_mus|hu_hu_hu_mus_False|88_88 (ssRNA)
RNA: GGGAGUUCUACAGUCCGACGAUCACUGUCGCUCCGGACGUAGACAUGGCACAGAUACUCUUGUUCUUUGACAGAAGCUCUGCUGCCUUUCCCCGAGCGUUCCACAAUCAGUUGACUUGUAAAGGUCAUGAAUUCCUGCACACUCAACAGAGGAUUGAGCAUCA
B20: chr3:55808730:55808731:-_ENSMUSG00000027799_ENSMUST00000029374|mus_mus|motif|central (ssRNA)
RNA: GGGAGUUCUACAGUCCGACGAUCUGACGUCGUAUGAAUUCUGAAGUCUUUCUCUUCCAUUAUGCUUGAUGUGCACGUUAACUCGGCACUCGCAGUCAUGUGAGCAAGCAACCCAAGAUCAUCACUGACACCAAGAUGUACUUGCAACAGAGGAUUGAGCAUCA
B21: chr2:15768762:15768763:+_ENSG00000079785_ENST00000233084|hu_hu|FALSE|FALSE (ssRNA)
RNA: GGGAGUUCUACAGUCCGACGAUCGGGCAGAGUGACAUUUAUAACAUAAGGAACACCGUGGAUAUCAAUUCCUCUAGCAGCUACAUCUGUGCAAAUCAAGAAUCUUACAUCUCCUUUCUUAAAUCUUUCCAAGUUUUGCUUUCUCAACAGAGGAUUGAGCAUCA
B22: chr1:150192741:150192742:-_ENSG00000143401_ENST00000314136|hu_mus|FALSE|FALSE (ssRNA)
RNA: GGGAGUUCUACAGUCCGACGAUCAAUUAUGGGCUAAAAAUGUCUAAUACAUUAAGCAUGAAUUAUAAAAAUCCAGAAUCUAAAUACAGUGCUAGAGAAUUUCACUAUGGGAAGAUGAAUGAGAAUUCUUUUCUAAGAACAUUACAACAGAGGAUUGAGCAUCA

In the assay the target is T1, UNK ZnF1-3. Put plainly: nsRBNS (natural sequence RNA bind-n-seq); RBNS binding buffer (assumed for nsRBNS): 25 mM Tris pH 7.5, 150 mM KCl, 3 mM MgCl2, 0.01% Triton X-100, 500 ug/ml BSA, 20 U/ml SUPERase-In, 4 C; UNK is unkempt and MSI1 is Musashi-1; names of the RNAs are library labels; protein concentration not given here; high values mean tight binding.
As for B1, the binding signal came to 1.04 enrichment R. For B2 the value was 0.764 enrichment R; for B3, 1.78 enrichment R; for B4, 0.509 enrichment R. For B5 the value was 2.2 enrichment R. Molecule B6 gave a binding signal of 0.699 enrichment R. Molecule B7 showed a binding signal of 1.38 enrichment R.

Molecule B8 came in with a binding signal of 0.655 enrichment R.

In the case of B9, the binding signal came out at 1.42 enrichment R. For B10 the value was 0.276 enrichment R; for B11, 0.742 enrichment R; for B12, 1.55 enrichment R. Molecule B13 came in with a binding signal of 0.858 enrichment R.

The molecule B14 yielded a binding signal of 2.13 enrichment R. The molecule B15 showed a binding signal of 0.632 enrichment R.

Consider B16, for which the binding signal came out at 0.641 enrichment R. The molecule B17 registered a binding signal of 1.35 enrichment R. For B18 the value was 1.3 enrichment R; for B19, 0.518 enrichment R; for B20, 0.562 enrichment R. For B21 the value was 1.46 enrichment R; for B22, 0.916 enrichment R.
